PubChem BioAssay AID1508624 (National Center for Advancing Translational Sciences (NCATS), 2021)
The whole screen tested about 48,000 compounds, of which about 120 (0.25%) were called active. Inconclusive results (about 4%) are left out. Calls follow the shape of the dose curve; as a rule, active = well fitted activation curve with a large enough effect; inconclusive = small, poorly fitted or top-dose-only effect, or another doubt; inactive = no such curve, though single readings can be large or run the other way. This is one part of the list.

Assay: Primary qHTS for Identification of Small Molecule Activators of Huntingtin-Antisense Promoter Activity; also: nearly all actives have a fitted effect of over 55% in size
Details: HEK293 HTT-AS promoter firefly luciferase reporter, 24 h; series mostly up to 57.5 µM; activity change, positive = activation: at the top concentration
Method in brief: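 Firefly luciferase signal from promoter-reporter HEK293 cells was scaled between vehicle (0%) and zero RLU (-100%). Compounds were tested at final concentrations of up to 57.5 uM over 24 h at 37 degrees C. PTC124 at 50 uM final served as control inhibitor.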

Activity change, positive = activation, inactive:
COc1ccc(CNC(=O)C2CCC(CNS(=O)(=O)c3ccc4c(c3)CCCC(=O)N4)CC2)cc1 (configuration not stated) -17.4%
CCc1cccc(-n2c(=O)c3cccnc3n2CC(=O)Nc2c(C)cc(C)cc2C)c1 -7.82%
COc1cc(S(=O)(=O)NCCc2c(C)[nH]c3ccccc23)c(C)cc1C -19.7%
COc1ccc(N(Cc2cc3cccc(C)c3[nH]c2=O)C(=O)c2cccc(Cl)c2)cc1 -32.1%
COc1ccc2nc(N(Cc3cccnc3)C(=O)Cc3ccccc3)sc2c1 -3.7%
CC(=O)N1CCc2cc(S(=O)(=O)C(C)CC(=O)Nc3ccc(Br)c(C)c3)ccc21 (configuration not stated) -11.4%
CN(C)S(=O)(=O)c1ccc(C(=O)NCCSc2c(-c3ccccc3)[nH]c3ccccc23)cc1 -42.6%
CC(=O)Nc1ccc(S(=O)(=O)NC2=NCN(CCO)CN2)cc1 -5.73%
COc1ccc(NC(=O)C2=C(C)Nc3ncnn3C2c2cccn2C)cc1 (configuration not stated) -6.54%
Fc1cccc(-c2nnn3c2nc(NC2CCCCC2)c2ccccc23)c1 -18.6%
COc1ccccc1CNC(=O)CN1C(=O)COc2ccc(S(=O)(=O)NC3CCCC3)cc21 -7.79%
Cc1cccc(-n2c(CNC(=O)c3cccc(F)c3)nnc2SCC(=O)Nc2ccccc2F)c1 -16.4%
CC1CCN(CC2CCN(C(=O)Nc3ccc(Br)cc3F)CC2)CC1 -6.64%
CC(C)(C)C1CCc2oc3ccc(NS(=O)(=O)c4ccc(C(=O)O)cc4)cc3c2C1 (configuration not stated) -10.6%
COc1ccc(Cn2c(SCC(=O)N(C)Cc3ccccc3)nc3ccccc32)cc1 6.37%
COc1ccc(CCNc2ncnc3c2cnn3-c2cc(Cl)ccc2C)cc1 -36.8%
Cc1ccc(NC(=O)Cn2c(=O)nc(-c3ccccc3)c3ccccc32)cc1F -3.88%
Cc1cccc(-c2noc(-c3ccc(N4CCOCC4)c([N+](=O)[O-])c3)n2)c1 -11.9%
CC1CCN(S(=O)(=O)c2ccc3c(ccc(=O)n3CC(=O)Nc3cccc(F)c3)c2)CC1 -35.7%
O=C(Nc1cnc(N2CCN(c3ccccc3)CC2)c(C(=O)O)c1)c1cccs1 4.22%
Cc1ccc(NC(=O)c2cc(S(=O)(=O)NCCc3ccc(Cl)cc3)ccc2F)cc1 -33%
COc1ccc(C2N=C(N)Nc3nc4ccccc4n32)cc1 (configuration not stated) -16.4%
CC1=C(C(=O)N2CCN(c3cccc(Cl)c3)CC2)C2(CCCCC2)OC1=O -13.6%
CCOC(=O)C1CCN(c2nc3c(S(=O)(=O)c4ccc(C)c(C)c4)nnn3c3ccc(Cl)cc23)CC1 -27.4%
CCOC(=O)CSc1nc2c(sc3ccccc32)c(=O)n1CCO 0%
COc1cc(C)c(Sc2cnc(NC(=O)c3ccc(CNC(C)C(C)C)cc3)s2)cc1C(=O)N1CCN(C(C)=O)CC1 (configuration not stated) -11.5%
CCN(CC)CCCNc1ncnc2c1cnn2-c1ccc(C)c(C)c1 21.7%
Cc1csc2nc(COc3cccc(NC(=O)c4ccccc4F)c3)cc(=O)n12 -2.71%
Cc1nn(CC(=O)N2CCN(c3ccc(Cl)cc3)CC2)c(=O)c2cccn12 -4.66%
COc1ccc(OCC(O)Cn2c(NCCO)nc3c2c(=O)n(C)c(=O)n3C)cc1 (configuration not stated) -67.4%
O=C(CSc1nc2c([nH]c3ccccc32)c(=O)n1-c1ccc(Cl)cc1)c1ccccc1 -12%
Cc1cc(C)cc(NC(=O)Cn2cc(C(=O)C3CCCCC3)c3ccccc32)c1 -23.1%
Cc1ccc2nc(COc3ccccc3NC(=O)c3ccc(F)cc3)cc(=O)n2c1 -9.33%
Cc1ccc2c(=O)cc(C(=O)Nc3ccc(S(=O)(=O)Nc4ncccn4)cc3)oc2c1C 1.98%
Cc1cc(C)c(NC(=O)C2CCN(c3nn4c(=O)cc(C)nc4s3)CC2)c(C)c1 -5.28%
COc1ccc(NCc2cccn2-c2nnc(N3CCCCC3)s2)cc1OC -54.4%
CCOc1ccc(NC(=O)c2c(NC(=O)Cc3ccccc3)sc3c2CCCCC3)cc1 -10.1%
Cc1ccc(-n2c(=O)c3c(c4cc(C)ccc4n3C)n(CC(=O)N3CCCC3)c2=O)cc1 -13.9%
CC(Cc1ccccc1)(NC(=O)CN)c1ccccc1 (configuration not stated) 0.62%
COc1ccccc1CNC(=O)c1cn(C)c2ccc(S(=O)(=O)N(C)C3CCCCC3)cc2c1=O -14.6%
Cc1ccc(NC(=O)CSc2cn(CC(=O)N3CCCC3)c3ccccc23)cc1Cl -25.6%
CCOc1ccc(NS(=O)(=O)c2ccc3c(c2)CCCN3C(=O)C2CCC2)cc1 -28.4%
Cc1cc(NC(=O)CN2C(=O)c3cccnc3Sc3ccccc32)ccc1Br -2.38%
COc1ccc(OC)c2sc(N(Cc3cccnc3)C(=O)c3ccco3)nc12 -25.1%
CCc1ccccc1NC(=O)Nc1nnc(N(CC)c2ccccc2)s1 -14.9%
CCN1CCN(c2ncc3c(n2)CC(c2ccccc2O)CC3=O)CC1 (configuration not stated) -14.5%
Cc1ccc(CNC(=O)c2cc(-c3ccc(Cl)cc3)on2)cc1 4.16%
Cc1ccc2oc(=O)c(S(=O)(=O)c3ccc(C(C)(C)C)cc3)cc2c1 16%
CN(C)c1ccc(CNC(=O)CN2CCSc3ccc(S(=O)(=O)N(C)C)cc32)cc1 -28.5%
Cc1ccc(CNC(=O)CNS(=O)(=O)c2cccs2)cc1 -5.7%
Cc1ccc(NC(=O)C2CCN(c3nn4cc(-c5ccc(C)cc5)nc4s3)CC2)cc1 21.5%
CCN(c1ccccc1)S(=O)(=O)c1nnc(NC(=O)COc2cccc(C)c2)s1 -21.3%
O=C(Nc1ccc(Br)cc1)C1CCCN1S(=O)(=O)c1ccc(F)cc1 (configuration not stated) -42.1%
CC(C)(C)c1ccc(C(=O)Nc2sc3c(c2C#N)CCC(C(C)(C)C)C3)cc1 (configuration not stated) 7.2%
C[C@H](CCC(=O)O)[C@H]1CC[C@H]2[C@H]3[C@@H](CC[C@]12C)[C@@]1(C)CC[C@@H](O)C[C@H]1C[C@@H]3O -22.1%
COc1ccc(CNC(=O)c2oc3c(c2C)-c2nn(Cc4ccc(Cl)cc4)cc2CC3)cc1 -35.7%
CCOc1ccc(NC(=O)Cn2c(=O)n(CC(=O)NCc3ccccc3Cl)c(=O)c3sccc32)cc1 -13.9%
CCN(C(=O)c1cc2c(=O)oc3ccc(C)cc3c2s1)c1ccccc1C -11.7%
CCN(CC)S(=O)(=O)c1ccc2nc(NC(=O)c3cncc(Br)c3)sc2c1 -11.9%
Cc1cccn2c(=O)c(C(=O)NC(C)c3ccccc3)cnc12 (configuration not stated) 0.439%
Cc1ccc(OCc2nc(-c3ccc(C(=O)NCc4ccc(OC(C)C)cc4)cc3)oc2C)cc1 -12.6%
CCOc1ccc(N(C)S(=O)(=O)c2ccc3[nH]cc(C(=O)NCc4ccccc4)c(=O)c3c2)cc1 -1.86%
Cc1cc(C)cc(N2C(=O)N(Cc3cccc(F)c3)c3ccccc3S2(=O)=O)c1 -21.9%
Cc1ccc(C(=O)c2cn(Cc3ccc(Cl)cc3)c3nc(C)ccc3c2=O)cc1 1.43%
COc1ccc(N2CCN(C(=O)CSc3n[nH]c(-c4ccccc4Cl)n3)CC2)cc1 -13.2%
Cc1ccc(C)c(CN2C(=O)c3ccccc3S(=O)(=O)c3ccc(C(=O)NCCC4=CCCCC4)cc32)c1 -18.4%
Cc1cc(C)c(NC(=O)C(C)n2nnc3sc4c(c3c2=O)CCCC4)c(C)c1 (configuration not stated) -4.96%
COc1ccc(Nc2oc(-c3ccc(COc4ccccc4C)o3)nc2C#N)cc1 -24.1%
COc1ccc(CCn2c3c(c(=O)[nH]c2=O)C(NC(=O)c2ccc(C(C)(C)C)cc2)(C(F)(F)F)C(=O)N3)cc1OC (configuration not stated) -8.7%
CC(=O)c1cc(-c2ccc(F)cc2)n(CC(=O)Nc2cc(C)cc(C)c2)c1C -18.4%
COc1ccccc1Cc1nc2ccccc2nc1SCC(=O)N1CCN(c2ccccc2)CC1 -4.1%
Cc1ccc(C(C)C)c(OCCSc2nc3ccccc3n2CC(O)CO)c1 (configuration not stated) -33.6%
COc1cccc(NC(=O)/C(C#N)=C/c2c(C)n(Cc3ccc(Cl)cc3)c3ccccc23)c1 -8.33%
CC(C)Cn1c(-c2ccc(S(=O)(=O)N3CCOCC3)cc2)csc1=Nc1cc(Cl)ccc1Cl 0%
O=C(NCc1ccco1)c1ccc2c(c1)N(Cc1ccc(Cl)cc1)C(=O)c1ccccc1S2 -38.8%
CCOc1ccc(Nc2nc3c(S(=O)(=O)c4ccc(C(C)C)cc4)nnn3c3ccsc23)cc1 -14.1%
COc1cc(OC)c(NS(=O)(=O)c2c(C(=O)N3CCC(C)CC3)c(C)n(C)c2C)cc1Cl -17.9%
Cc1nnc(NC(=O)CSCc2cc(=O)c3ccccc3[nH]2)s1 -3.22%
COc1ccc(CCNC(=O)CCn2c(=O)c3ccccc3n(Cc3ccccc3)c2=O)cc1OC -25.1%
CC(C)c1nn2c(=O)cc(COC(=O)c3ccccc3NC(=O)c3cccc(Cl)c3)nc2s1 0.585%
Cc1nc2ccn(Cc3cccnc3)c(=O)c2cc1C(=O)N1CCN(c2ccc(F)cc2)CC1 -17.9%
COC(=O)c1ccccc1NC(=O)c1cnc2c(-c3cccc(C)c3)c(C)nn2c1C -12.9%
CN(C)CCNc1oc(-c2ccc(COc3ccc(Cl)cc3)o2)nc1C#N -14.6%
COc1ccc(CCNC(=O)C(C)n2c(=O)cc(C(F)(F)F)c3c(C)nn(C)c32)cc1OC (configuration not stated) -13.2%
Cc1cc(C)cc(Oc2nc3c(C)cccn3c(=O)c2/C=C(\C#N)c2nc3ccccc3s2)c1 -2.59% [at 11.5 µM, percent change from vehicle, -100% = no light]
COc1ccc(N2CCN(Cc3nnc(-c4cccc(Br)c4)o3)CC2)cc1 -2.44%
CCc1ccc(C(=O)c2cn(Cc3ccc(F)cc3)c3cc(OC)c(OC)cc3c2=O)cc1 -25%
CCS(=O)(=O)N1CC(=O)N(c2ccc(Cl)cc2)C(C)(C(=O)NC2CCCCCC2)C1 (configuration not stated) -14.6%
C[C@@H](Oc1cc(-n2cnc3ccc(CN4CCN(C)CC4)cc32)sc1C(N)=O)c1ccccc1C(F)(F)F -44.5%
O=C(CCCN1CCC(O)(c2ccc(Br)cc2)CC1)c1ccc(F)cc1 -6.89%
Cc1ccc(NC(=O)[C@@H](c2ccccc2)N2Cc3ccccc3C2=O)cc1F -6.49%
COc1ccc(CCNC(=O)Cn2c(=O)c3cccn3c3ccccc32)cc1OC -14.8%
